In patent US10392428B2, “GLP-1 derivatives and uses thereof” (Novo Nordisk A/S, priority 2014, dated 2019):
At least one compound was matched to its structure with a doubt left. Non-standard residues stand in square brackets, D forms with d. Residues, ends and D or L forms follow the SMILES beside them. Groups on a side chain read outwards from the residue. *: point of attachment. X2 = O=C(O)CCCCCCCCCCCCCCCCCCC(=O)NC[C@H]1CC[C@H](C(=O)N[C@@H](CCC(=O)NCCCC[C@H](NC(=O)CC[C@H](NC(=O)[C@H]2CC[C@H](CNC(=O)CCCCCCCCCCCCCCCCCCC(=O)O)CC2)C(=O)O)C(=O)*)C(=O)O)CC1; AEEA = NCCOCCOCC(=O)O; Aib = CC(C)(N)C(=O)O

System: lean Sprague Dawley male rats
Assay: Pharmacodynamic study in rats: acute effect on food intake and body weight
Type: in vivo
Details: 48 h vs baseline

SMILES | % change in body weight (single s.c. dose 50 nmol/kg) [%] | % change in food intake (single s.c. dose 50 nmol/kg) [%] | % change in body weight (single s.c. dose 100 nmol/kg) [%] | % change in food intake (single s.c. dose 100 nmol/kg) [%]
CC[C@H](C)[C@H](NC(=O)[C@H](Cc1ccccc1)NC(=O)[C@H](CCC(=O)O)NC(=O)[C@H](CCCNC(=N)N)NC(=O)[C@H](C)NC(=O)[C@H](C)NC(=O)[C@H](CCC(N)=O)NC(=O)[C@H](CCC(=O)O)NC(=O)[C@H](CCC(=O)O)NC(=O)[C@H](CC(C)C)NC(=O)[C@H](Cc1ccc(O)cc1)NC(=O)[C@H](CO)NC(=O)[C@H](CO)NC(=O)[C@@H](NC(=O)[C@H](CC(=O)O)NC(=O)[C@H](CO)NC(=O)[C@@H](NC(=O)[C@H](Cc1ccccc1)NC(=O)[C@@H](NC(=O)CNC(=O)[C@H](CCC(=O)O)NC(=O)C(C)(C)NC(=O)[C@@H](N)Cc1c[nH]cn1)[C@@H](C)O)[C@@H](C)O)C(C)C)C(=O)N[C@@H](C)C(=O)N[C@@H](Cc1c[nH]c2ccccc12)C(=O)N[C@@H](CC(C)C)C(=O)N[C@H](C(=O)N[C@@H](CCCNC(=N)N)C(=O)NCC(=O)N[C@@H](CCCNC(=N)N)C(=O)NCC(=O)N[C@@H](CCCCNC(=O)COCCOCCNC(=O)COCCOCCNC(=O)COCCOCCNC(=O)COCCOCCNC(=O)COCCOCCNC(=O)COCCOCCNC(=O)[C@H](CCCCNC(=O)CC[C@H](NC(=O)[C@H]1CC[C@H](CNC(=O)CCCCCCCCCCCCCCCCCCC(=O)O)CC1)C(=O)O)NC(=O)CC[C@H](NC(=O)[C@H]1CC[C@H](CNC(=O)CCCCCCCCCCCCCCCCCCC(=O)O)CC1)C(=O)O)C(=O)O)C(C)C [Example 19] (H-H[Aib]EGTFTSDVSSYLEEQAAREFIAWLVRGRGK([AEEA-AEEA-AEEA-AEEA-AEEA-AEEA-X2])-OH; N-terminus and C-terminus assumed) | −4 | −45 | – | –
CC[C@H](C)[C@H](NC(=O)[C@H](Cc1ccccc1)NC(=O)[C@H](CCC(=O)O)NC(=O)[C@H](CCCNC(=N)N)NC(=O)[C@H](C)NC(=O)[C@H](C)NC(=O)[C@H](CCC(N)=O)NC(=O)[C@H](CCC(=O)O)NC(=O)[C@H](CCC(=O)O)NC(=O)[C@H](CC(C)C)NC(=O)[C@H](Cc1ccc(O)cc1)NC(=O)[C@H](CO)NC(=O)[C@H](CO)NC(=O)[C@@H](NC(=O)[C@H](CC(=O)O)NC(=O)[C@H](CO)NC(=O)[C@@H](NC(=O)[C@H](Cc1ccccc1)NC(=O)[C@@H](NC(=O)CNC(=O)[C@H](CCC(=O)O)NC(=O)C(C)(C)NC(=O)[C@@H](N)Cc1c[nH]cn1)[C@@H](C)O)[C@@H](C)O)C(C)C)C(=O)N[C@@H](C)C(=O)N[C@@H](Cc1c[nH]c2ccccc12)C(=O)N[C@@H](CC(C)C)C(=O)N[C@H](C(=O)N[C@@H](CCCNC(=N)N)C(=O)NCC(=O)N[C@@H](CCCNC(=N)N)C(=O)N[C@@H](CCCCNC(=O)COCCOCCNC(=O)COCCOCCNC(=O)COCCOCCNC(=O)COCCOCCNC(=O)COCCOCCNC(=O)COCCOCCNC(=O)COCCOCCNC(=O)COCCOCCNC(=O)[C@H](CCCCNC(=O)CC[C@H](NC(=O)[C@H]1CC[C@H](CNC(=O)CCCCCCCCCCCCCCCCCCC(=O)O)CC1)C(=O)O)NC(=O)CC[C@H](NC(=O)[C@H]1CC[C@H](CNC(=O)CCCCCCCCCCCCCCCCCCC(=O)O)CC1)C(=O)O)C(=O)O)C(C)C [Example 13] | – | – | −10 | −74
CC[C@H](C)[C@H](NC(=O)[C@H](Cc1ccccc1)NC(=O)[C@H](CCC(=O)O)NC(=O)[C@H](CCCNC(=N)N)NC(=O)[C@H](C)NC(=O)[C@H](C)NC(=O)[C@H](CCC(N)=O)NC(=O)[C@H](CCC(=O)O)NC(=O)[C@H](CCC(=O)O)NC(=O)[C@H](CC(C)C)NC(=O)[C@H](Cc1ccc(O)cc1)NC(=O)[C@H](CO)NC(=O)[C@H](CO)NC(=O)[C@@H](NC(=O)[C@H](CC(=O)O)NC(=O)[C@H](CO)NC(=O)[C@@H](NC(=O)[C@H](Cc1ccccc1)NC(=O)[C@@H](NC(=O)CNC(=O)[C@H](CCC(=O)O)NC(=O)C(C)(C)NC(=O)[C@@H](N)Cc1c[nH]cn1)[C@@H](C)O)[C@@H](C)O)C(C)C)C(=O)N[C@@H](C)C(=O)N[C@@H](Cc1c[nH]c2ccccc12)C(=O)N[C@@H](CC(C)C)C(=O)N[C@H](C(=O)N[C@@H](CCCNC(=N)N)C(=O)NCC(=O)N[C@@H](CCCCNC(=O)COCCOCCNC(=O)COCCOCCNC(=O)COCCOCCNC(=O)COCCOCCNC(=O)COCCOCCNC(=O)COCCOCCNC(=O)[C@H](CCCCNC(=O)CC[C@H](NC(=O)[C@H]1CC[C@H](CNC(=O)CCCCCCCCCCCCCCCCCCC(=O)O)CC1)C(=O)O)NC(=O)CC[C@H](NC(=O)[C@H]1CC[C@H](CNC(=O)CCCCCCCCCCCCCCCCCCC(=O)O)CC1)C(=O)O)C(=O)NCC(=O)O)C(C)C [Example 18] (H-H[Aib]EGTFTSDVSSYLEEQAAREFIAWLVRGK([AEEA-AEEA-AEEA-AEEA-AEEA-AEEA-X2])G-OH; N-terminus and C-terminus assumed) | 0 | −13 | – | –
CC[C@H](C)[C@H](NC(=O)[C@H](Cc1ccccc1)NC(=O)[C@H](CCC(=O)O)NC(=O)[C@H](CCCNC(=N)N)NC(=O)[C@H](C)NC(=O)[C@H](C)NC(=O)[C@H](CCC(N)=O)NC(=O)[C@H](CCC(=O)O)NC(=O)[C@H](CCC(=O)O)NC(=O)[C@H](CC(C)C)NC(=O)[C@H](Cc1ccc(O)cc1)NC(=O)[C@H](CO)NC(=O)[C@H](CO)NC(=O)[C@@H](NC(=O)[C@H](CC(=O)O)NC(=O)[C@H](CO)NC(=O)[C@@H](NC(=O)[C@H](Cc1ccccc1)NC(=O)[C@@H](NC(=O)CNC(=O)[C@H](CCC(=O)O)NC(=O)C(C)(C)NC(=O)[C@@H](N)Cc1c[nH]cn1)[C@@H](C)O)[C@@H](C)O)C(C)C)C(=O)N[C@@H](C)C(=O)N[C@@H](Cc1c[nH]c2ccccc12)C(=O)N[C@@H](CC(C)C)C(=O)N[C@H](C(=O)N[C@@H](CCCNC(=N)N)C(=O)NCC(=O)N[C@@H](CCCNC(=N)N)C(=O)N[C@@H](CCCCNC(=O)COCCOCCNC(=O)COCCOCCNC(=O)COCCOCCNC(=O)COCCOCCNC(=O)[C@H](CCCCNC(=O)COCCOCCNC(=O)CC[C@H](NC(=O)[C@H]1CC[C@H](CNC(=O)CCCCCCCCCCCCCCCCCCC(=O)O)CC1)C(=O)O)NC(=O)COCCOCCNC(=O)CC[C@H](NC(=O)[C@H]1CC[C@H](CNC(=O)CCCCCCCCCCCCCCCCCCC(=O)O)CC1)C(=O)O)C(=O)O)C(C)C [Example 21, N{Epsilon-37}-[2-[2-[2-[[2-[2-[2-[[2-[2-[2-[[2-[2-[2-[[(2S)-2,6-bis[[2-[2-[2-[[(4S)-4-carboxy-4-[[4-[(19-carboxynonadecanoylamino)methyl]cyclohexanecarbonyl]amino]butanoyl]amino]ethoxy]ethoxy]acetyl]amino]hexanoyl]amino]ethoxy]ethoxy]acetyl]amino]ethoxy]ethoxy]acetyl]amino]ethoxy]ethoxy]acetyl]amino]ethoxy]ethoxy]acetyl]-[Aib8,Glu22,Arg26,Arg34,Lys37]-GLP-1-(7-37)-peptide] | −4 | −43 | – | –
CC[C@H](C)[C@H](NC(=O)[C@H](Cc1ccccc1)NC(=O)[C@H](CCC(=O)O)NC(=O)[C@H](CCCNC(=N)N)NC(=O)[C@H](C)NC(=O)[C@H](C)NC(=O)[C@H](CCC(N)=O)NC(=O)[C@H](CCC(=O)O)NC(=O)[C@H](CCC(=O)O)NC(=O)[C@H](CC(C)C)NC(=O)[C@H](Cc1ccc(O)cc1)NC(=O)[C@H](CO)NC(=O)[C@H](CO)NC(=O)[C@@H](NC(=O)[C@H](CC(=O)O)NC(=O)[C@H](CO)NC(=O)[C@@H](NC(=O)[C@H](Cc1ccccc1)NC(=O)[C@@H](NC(=O)CNC(=O)[C@H](CCC(=O)O)NC(=O)C(C)(C)NC(=O)[C@@H](N)Cc1c[nH]cn1)[C@@H](C)O)[C@@H](C)O)C(C)C)C(=O)N[C@@H](C)C(=O)N[C@@H](Cc1c[nH]c2ccccc12)C(=O)N[C@@H](CC(C)C)C(=O)N[C@H](C(=O)N[C@@H](CCCNC(=N)N)C(=O)NCC(=O)N[C@@H](CCCNC(=N)N)C(=O)N[C@@H](CCCCNC(=O)COCCOCCNC(=O)COCCOCCNC(=O)COCCOCCNC(=O)COCCOCCNC(=O)[C@H](CCCCNC(=O)COCCOCCNC(=O)COCCOCCNC(=O)CC[C@H](NC(=O)[C@H]1CC[C@H](CNC(=O)CCCCCCCCCCCCCCCCCCC(=O)O)CC1)C(=O)O)NC(=O)COCCOCCNC(=O)COCCOCCNC(=O)CC[C@H](NC(=O)[C@H]1CC[C@H](CNC(=O)CCCCCCCCCCCCCCCCCCC(=O)O)CC1)C(=O)O)C(=O)O)C(C)C [Example 15] | −7 | −64 | – | –
CC[C@H](C)[C@H](NC(=O)[C@H](Cc1ccccc1)NC(=O)[C@H](CCC(=O)O)NC(=O)[C@H](CCCNC(=N)N)NC(=O)[C@H](C)NC(=O)[C@H](C)NC(=O)[C@H](CCC(N)=O)NC(=O)[C@H](CCC(=O)O)NC(=O)[C@H](CCC(=O)O)NC(=O)[C@H](CC(C)C)NC(=O)[C@H](Cc1ccc(O)cc1)NC(=O)[C@H](CO)NC(=O)[C@H](CO)NC(=O)[C@@H](NC(=O)[C@H](CC(=O)O)NC(=O)[C@H](CO)NC(=O)[C@@H](NC(=O)[C@H](Cc1ccccc1)NC(=O)[C@@H](NC(=O)CNC(=O)[C@H](CCC(=O)O)NC(=O)C(C)(C)NC(=O)[C@@H](N)Cc1c[nH]cn1)[C@@H](C)O)[C@@H](C)O)C(C)C)C(=O)N[C@@H](C)C(=O)N[C@@H](Cc1c[nH]c2ccccc12)C(=O)N[C@@H](CC(C)C)C(=O)N[C@H](C(=O)N[C@@H](CCCCNC(=O)COCCOCCNC(=O)COCCOCCNC(=O)COCCOCCNC(=O)COCCOCCNC(=O)COCCOCCNC(=O)COCCOCCNC(=O)[C@H](CCCCNC(=O)CC[C@H](NC(=O)[C@H]1CC[C@H](CNC(=O)CCCCCCCCCCCCCCCCCCC(=O)O)CC1)C(=O)O)NC(=O)CC[C@H](NC(=O)[C@H]1CC[C@H](CNC(=O)CCCCCCCCCCCCCCCCCCC(=O)O)CC1)C(=O)O)C(=O)NCC(=O)N[C@@H](CCCNC(=N)N)C(=O)NCC(=O)O)C(C)C [Example 16, N{Epsilon-34}-[2-[2-[2-[[2-[2-[2-[[2-[2-[2-[[2-[2-[2-[[2-[2-[2-[[2-[2-[2-[[(2S)-2,6-bis[[(4S)-4-carboxy-4-[[4-[(19-carboxynonadecanoylamino)methyl]cyclohexanecarbonyl]amino]butanoyl]amino]hexanoyl]amino]ethoxy]ethoxy]acetyl]amino]ethoxy]ethoxy]acetyl]amino]ethoxy]ethoxy]acetyl]amino]ethoxy]ethoxy]acetyl]amino]ethoxy]ethoxy]acetyl]amino]ethoxy]ethoxy]acetyl]-[Aib8,Glu22,Arg26]-GLP-1-(7-37)-peptide] | 0 | −21 | – | –
